Data published in the supplement of paper PMC3334620.
The full ranking holds about 33,000 sequences; the median of “E-score (-0.5 to 0.5)” is about -0.016, and the highest 2% start at about 0.31. This is one part of the list.

Target: Cst6 (UniProt P40535)
Assay: PBM E-score (8-mer binding enrichment) (E-score (-0.5 to 0.5)); higher = stronger / more preferred TF binding; most listed sequences are background and not binding sites
Settings: protein concentration: 200 nM; construct: GST-DNA-binding domain
Method in brief: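 Yeast transcription factors carrying a GST tag, as full-length proteins or DNA-binding domains, were produced by PURExpress in vitro transcription/translation. About 100-200 nM protein was applied to universal all-10-mer Agilent arrays, double-stranded by primer extension on fresh or once-stripped slides. Bound protein was detected with fluorescent anti-GST, and scans were normalised with masliner. The Universal PBM Analysis Suite gave each ungapped eight-base word, pooled with its reverse complement, an E-score, a modified Wilcoxon-Mann-Whitney statistic.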

Sequence | PBM E-score
TAATTAAA | 0.207
ATCATTGG | 0.194
CATCCCTC | -0.0435
TAAATGCA | 0.114
CTCCCGGC | -0.223
AAACGTCT | 0.14
CGTTGTCA | 0.0333
AAGTGGAT | -0.0702
AGGTCAGA | -0.15
ATGCTCGG | -0.0549
TTAGTCAA | 0.0689
GATCTGTA | 0.016
GTATCTGA | -0.0542
AGGTCATG | 0.221
CCGTGACA | 0.15
AGGCTTTG | -0.136
CGGGTGGC | -0.183
CCTCTAGA | -0.179
ATACTTGC | 0.0726
GCGAGTAC | -0.0836
AGTCAGCA | 0.195
ACAGGGGA | -0.218

Sequence | PBM E-score
CCTTGTCC | -0.129
TACGTGGA | 0.157
CGTTGAAG | 0.0825
CTCTGCTC | -0.211
AGCTTAAT | 0.112
GACTGGGC | -0.31
GAATACTC | -0.0306
ACGTGGGG | -0.121
ATACGAGA | -0.041
CGATCTGC | -0.0699
GCGAGGTA | -0.0924
GTCGATGA | 0.121
CCGAGGCC | -0.243
CAACTGTC | -0.0406
ATACTTCC | -0.115
AGTTGGAC | -0.0527
CTCCTTGA | -0.0988
ACCAAGCT | 0.0602
CATGTTGG | -0.0314
GGCAATCA | 0.0147
CACCAGGG | -0.226
ACGAGTAT | 0.103

Sequence | PBM E-score
AGTCCCAG | -0.25
AAAAAATT | 0.237
CCGTTAAC | -0.0117
GGGCCGCA | -0.0641
ATACCCTG | -0.0744
AGAATAAG | 0.0844
CCTGTAGA | 0.0625
GCCATCTA | -0.0441
AGATCAAA | 0.105
CTAAGCCA | -0.271
CTGAGTAA | -0.0175
ATAATAAC | 0.205
ACTCCACG | -0.114
AAATGAAG | 0.173
AACGCGCA | 0.11
ACTGCTGA | -0.0776
ACAAACCA | 0.0273
ATGTGTAC | 0.0111
AGCACTAC | -0.0567
ATGAGCTG | 0.0155
ACCCTGCG | -0.00158
AAGTGCCT | -0.149

Sequence | PBM E-score
CAACCGGC | -0.139
ATTAGCTA | 0.0716
ATTCGCCC | -0.268
ATAGCGCC | 0.141
CAAGCAGA | 0.00785
AACCTAAC | 0.133
AAGGTGGG | -0.302
TGCCCAAA | -0.285
CCAGATAA | 0.0644
GGCATTTA | 0.0519
CCTGGTGC | -0.0554
GCGGAGGA | -0.355
AAACGGAA | 0.183
ACGCGTGG | -0.0007
CCAGACGC | -0.205
CAACTAAC | 0.179
CCTATGGA | -0.106
GAGTTCGA | 0.106
AATCGGGG | -0.261
AGAAGAAA | 0.18
AATATAGC | 0.106
CGCGGGGC | -0.0534

Sequence | PBM E-score
GCTAGCAA | -0.143
CAGCCGCC | -0.0993
ACTAGAGC | -0.174
ACATAGGA | -0.0648
GCTCTCGA | -0.123
GAGGTCCC | -0.22
AATTATCG | 0.316
TGCGCACA | -0.0758
TACTAGTA | 0.262
ATATTACC | 0.248
GCCCCTTA | -0.246
ACTCTTCG | -0.156
GCCCTAAA | -0.202
ACCAAACG | -0.00397
GAGTTTAC | 0.0471
ACTCCAGT | -0.162
CTACTGTC | -0.144
ACTAACAT | 0.231
AGTACGAG | -0.0146
AACGGCGT | 0.265
CGACTTAG | -0.0693
